Reference: PubChem BioAssay AID1671194 (National Center for Advancing Translational Sciences (NCATS), 2021)
Out of some 140,000 compounds screened, about 240 (0.17%) were called active. Inconclusive means that the source gave no clear call. Such entries were picked first, then a sample of the others. The call rests on the fitted dose curve; in most records, active means well fitted inhibition curve with a large enough effect; inconclusive means small, poorly fitted or top-dose-only effect; inactive means no such curve, though single readings can be large or run the other way. A potency beside an inconclusive call is a rough fit, not a confirmed value.

Test: Primary qHTS assay for inhibitors of alpha-synuclein gene (SNCA) expression; further: nearly all actives have a fitted effect of over 45% in size
Conditions: HEK-293 SNCA-luciferase knock-in, luminescence, 24 h; series mostly up to 57.2 µM
Potency means the concentration at half of the fitted maximal effect; tags describe the fitted curve by direction and shape.

Potency, active:
Cc1ccc(-c2cc(C(=O)N3CCC(c4nc(C5CCOCC5)no4)C3)c3ccccc3n2)cc1C (stereo unspecified) 10 µM
COCCCNC(=O)C(C)(C)Oc1nn(Cc2cccc(Cl)c2)c2ccccc12 31.6 µM

Potency, inconclusive:
O=C(CSc1nnc(-c2ccc(F)cc2)o1)N1CCCc2ccccc21 0.178 µM [inhibitor, partial curve, poor fit]
Cc1ccc(-c2noc([C@@H]3Cc4nc[nH]c4CN3Cc3cccs3)n2)cc1 3.16 µM [inhibitor, full curve, poor fit]
CC(C)c1cc(CN2CCC(N3CCC(C(=O)NCc4ccccn4)CC3)CC2)[nH]n1 39.8 µM [inhibitor, single point]
CC(C)Oc1cccc2c1c(NC(=O)c1ccn(C)n1)nn2Cc1ccccc1 35.5 µM [inhibitor, single point]
COc1ccc(N(Cc2cc3cccc(C)c3[nH]c2=O)C(=O)c2cccc(Cl)c2)cc1 39.8 µM [inhibitor, single point]
FC(F)(F)Oc1ccc(-c2cnc([C@@H]3COCCN3Cc3ccncc3)[nH]2)cc1 12.6 µM [inhibitor, single point]
CN(C)S(=O)(=O)c1ccc(C(=O)NCCSc2c(-c3ccccc3)[nH]c3ccccc23)cc1 39.8 µM [inhibitor, single point]
COc1ccccc1CNc1ncncc1-c1ccccc1CN(C)C 31.6 µM [inhibitor, partial curve, poor fit]
COc1cc(-c2nc(Cn3nnc(C(=O)Nc4cccc(Cl)c4)c3C)c(C)o2)cc(OC)c1OC 7.08 µM [inhibitor, single point]
CN(C)c1cccc(-c2nccc3c(=O)cc(N(C)C4CCOCC4)oc23)c1 17.8 µM [inhibitor, partial curve, poor fit]
Cn1nc(C(=O)N2CCC3(CC2)N=C(c2ccc(Br)cc2)NO3)c2ccccc21 39.8 µM [inhibitor, single point]
Cc1ccc(Cl)cc1-n1ncc2c(N3CCN(Cc4ccccc4)CC3)ncnc21 14.1 µM [inhibitor, partial curve, poor fit]
O=C(CSc1nc2c([nH]c3ccccc32)c(=O)n1-c1ccc(Cl)cc1)c1ccccc1 0.178 µM [inhibitor, partial curve, poor fit]
COc1ccccc1CNC(=O)c1cn(C)c2ccc(S(=O)(=O)N(C)C3CCCCC3)cc2c1=O 17.8 µM [inhibitor, partial curve]
O=C(CCC[C@H]1NC[C@@H]2C[C@H]1CN(Cc1ccccc1)C2)NCC1CCCCC1 10 µM [inhibitor, partial curve, poor fit]
CC(C)CC(=O)N1CCC2(CC1)OCC(C(=O)NCc1ccccc1)N2C(=O)c1ccccc1 (stereo unspecified) 39.8 µM [inhibitor, single point]
COc1ccccc1CCC(=O)N1CCC2(CC1)N=C(c1cccc(Br)c1)NO2 39.8 µM [inhibitor, single point]
COc1cc(C)c(Sc2cnc(NC(=O)c3ccc(CNC(C)C(C)C)cc3)s2)cc1C(=O)N1CCN(C(C)=O)CC1 (stereo unspecified) 34.1 µM [inhibitor, single point]
CCOc1cccc(-c2noc(-c3nnn4c3COC(c3ccc(Cl)cc3)C4)n2)c1 (stereo unspecified) 6.31 µM [inhibitor, single point]
Cc1ccc(NC(=O)c2cc(S(=O)(=O)NCCc3ccc(Cl)cc3)ccc2F)cc1 11.2 µM [inhibitor, partial curve, poor fit]
COc1ccc(CN2CCN(c3nc4ccccc4o3)CC2CCO)c(F)c1 (stereo unspecified) 3.16 µM [inhibitor, partial curve, poor fit]
CCOC(=O)C1=CN(CC(=O)Nc2ccc(OC)cc2)S(=O)(=O)N=C1C 2 µM [inhibitor, partial curve, poor fit]
COc1ccc(OCC2(C)COc3ccc(C(=O)N(C)C)cc3N2)cc1 (stereo unspecified) 8.91 µM [inhibitor, full curve, poor fit]
CCOc1ccc(NC(=O)Cn2c(=O)n(CC(=O)NCc3ccccc3Cl)c(=O)c3sccc32)cc1 7.08 µM [inhibitor, single point]
COc1ccc(CNC(=O)c2oc3c(c2C)-c2nn(Cc4ccc(Cl)cc4)cc2CC3)cc1 39.8 µM [inhibitor, single point]
CCN1CCN(c2ncc3c(n2)CC(c2ccccc2O)CC3=O)CC1 (stereo unspecified) 5.01 µM [inhibitor, full curve, poor fit]
CN(C)c1ccc(CNC(=O)CN2CCSc3ccc(S(=O)(=O)N(C)C)cc32)cc1 7.08 µM [inhibitor, partial curve, poor fit]
O=C1COc2ccc(-c3cccc(O)c3)nc2CN1Cc1ccc(C(F)(F)F)cc1 7.08 µM [inhibitor, partial curve, poor fit]
COc1ccc(C(=O)N2CCCN(c3nccc(Nc4ccc(C)cc4)n3)C2)cc1 17.8 µM [inhibitor, single point]
CN(C)C(=O)C(C)(C)Oc1nn(Cc2cccc(Cl)c2)c2ccccc12 56.2 µM [inhibitor, single point]
Cc1noc(-c2cn(C3CCN(C(=O)c4ccc(F)c(F)c4)CC3)nn2)n1 39.8 µM [inhibitor, single point]
COc1ccc2c(c1)sc1ncc(C(=O)NCc3ccccc3F)c(=O)n12 17.8 µM [inhibitor, partial curve, poor fit]
Cc1cc2nc3n(c(=O)c2n1CC(=O)Nc1cccc(C(F)(F)F)c1)CCCCC3 8.91 µM [inhibitor, single point]
CC(C)c1ccc(CC(=O)N2CCCc3ncc(C(=O)N(C)c4ccccc4)cc32)cc1 22.4 µM [inhibitor, single point]
CC1=CCN(Cc2ccc(OCC(O)CN3CCN(C)CC3)cc2)CC1 (stereo unspecified) 20 µM [inhibitor, single point]
COCC(=O)NC1CCN(c2nccc(Nc3ccccc3Cl)n2)CC1 2.82 µM [inhibitor, full curve, poor fit]
Cc1cc(Cl)ccc1OCC(=O)N1CC(CO)C2(CCNCC2)C1 (stereo unspecified) 0.891 µM [inhibitor, full curve]
O=C(CN1C(=O)NC2(CCOCC2)C1=O)Nc1ccccc1F 10 µM [inhibitor, partial curve, poor fit]
C=CCNC(=O)[C@@H]1Cc2cn(Cc3ccncc3)c3cccc(c23)[C@H](CC(C)C)N1 25.1 µM [inhibitor, partial curve, poor fit]
COc1ccc(NC(=O)Cn2cccc2-c2nc(-c3ccccc3)no2)cc1OC 0.631 µM [inhibitor, full curve, poor fit]
CC(C)CNC(=O)Nc1cccc(-c2ccc(N3CCC(C)CC3)nn2)c1 7.94 µM [inhibitor, full curve, poor fit]
O=c1[nH]c(N2CCOCC2)nc2c1CCN(Cc1ccc(Cl)c(F)c1)CC2 4.47 µM [inhibitor, full curve, poor fit]
CCOc1ccccc1C(=O)NC(C)C(=O)N1CCN(c2ccccn2)CC1 (stereo unspecified) 10 µM [inhibitor, single point]
COc1ccccc1CNC(=O)c1ccc2c(c1)N(C)C1CCCN1C2=O (stereo unspecified) 7.94 µM [inhibitor, single point]
O=C1NCN(c2ccccc2)C12CCN(CCCC(c1ccc(F)cc1)c1ccc(F)cc1)CC2 20 µM [inhibitor, single point]
COc1ccc(CNC(=O)N2CCC(c3noc(-c4ccccc4)n3)C2)cc1 (stereo unspecified) 8.91 µM [inhibitor, single point]

Potency, inactive:
O=C(c1cccc(Cl)c1)N1CCc2nc(-c3ccc(Cl)cc3)nc(-c3ccccc3)c2C1
O=C(C[C@@H]1CCNC[C@@H]1Cc1cc(-c2ccc(F)cc2)on1)NCc1ccco1
COc1ccc(NS(=O)(=O)c2ccc3nc(-c4ccccc4)[nH]c3c2)cc1
Cn1c(CNC(=O)CN2C(=O)C3(CCCCC3)C2c2ccccc2)nc2ccccc21 (stereo unspecified)
CCC(=O)N1CCc2ccc(C(=O)NC3CC3)cc21
CCOc1ccc2c(n1)CCN(C(=O)Cc1cccc(OC)c1)C2
O=C(NC1CCN(c2ccnc3ccnn23)CC1)c1ccncc1
CNC(=O)COC1CN(C(=O)c2ccc(C)cc2)CCC(=O)N(C)c2ccccc21 (stereo unspecified)
CC1CCN(CCNC(=O)c2cc3cn(C(C)C)cc3s2)CC1
c1ccc(-c2cc(NCCCOc3cccnc3)n3nccc3n2)cc1
O=C(NCc1cccc(Cl)c1)c1cc(-c2ccsc2)c2nncn2n1
O=C(NCc1ccco1)c1ccc2c(c1)N(Cc1ccc(Cl)cc1)C(=O)c1ccccc1S2
COc1ccc(NC(=O)N[C@@H]2C=C[C@@H](c3c(C)nn(-c4ccccn4)c3C)C2)cc1
